Data reported in article PMC12136788.
The list shows a part of the results.

T1: UNK ZnF1-3 (human, UniProt Q9C0B0 31-174)
T1 sequence: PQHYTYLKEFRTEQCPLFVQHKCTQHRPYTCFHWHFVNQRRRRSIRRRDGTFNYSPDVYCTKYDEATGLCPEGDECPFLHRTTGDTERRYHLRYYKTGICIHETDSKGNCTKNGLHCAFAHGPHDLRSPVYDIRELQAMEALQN

B1: 37000718_37000838_210_5pUTR_ENSMUSG00000040565_ENSMUST00000099494|mouse|control|control (ssRNA)
RNA: GGGAGUUCUACAGUCCGACGAUCGCCGCGCCGCUCCGGCGUUCGUUUCCCGAGCAGAGCGGCGCAGGCCCAGGCCGCCGGGCGCAGGGCGGCAGGCGGCGCGGCGUGGAGCGGCCCGCACGGGCCUUCCGGCAUGUGCCGGCCCAACAGAGGAUUGAGCAUCA
B2: chr5:130536139:130536140:+_ENSMUSG00000025532_ENSMUST00000026608|mus_mus|FALSE|FALSE (ssRNA)
RNA: GGGAGUUCUACAGUCCGACGAUCUCAGAUUGGAGUUUUCUCUUAUCUCCUAUUCCGCCAAGGACAUUCCUCUACAGUGAGCUAAGCUCUGGGUCAUUUCCCCUAGAGCAGCUGUGUGCAGCUCUGAGAGCUGGUGACCAUCUGCAACAGAGGAUUGAGCAUCA
B3: 6456280_6456486_1514_CDS_ENSG00000164535_ENST00000297056|human|control|control (ssRNA)
RNA: GGGAGUUCUACAGUCCGACGAUCGAAGGCGUAGCACCUGACCUGCGGGUAGGCGGCUCUGAGCAUGGUGGCCAGCAGGGCGGCCGCCCCGCCCCCGAGGCUGUGGCCCACUAUGACCAGCCGGUACUCAGGAGCAAUGCUGAACAACAGAGGAUUGAGCAUCA
B4: chr5:6374476:6374477:-_ENSG00000133398_ENST00000255764|hu_hu|FALSE|FALSE (ssRNA)
RNA: GGGAGUUCUACAGUCCGACGAUCCAGGCUUUUAAAUUUCUUCAUGGUGUCGAUCUUGCCUUUAACUUGCUCAUUUUUAGCUAGAGCCCUCUCCAGGCACUCUUUGGUGUAGAGCUGGGGAUUUCGACCUUGAUCUAUAUAUUCCAACAGAGGAUUGAGCAUCA
B5: chr14:76904501:76904502:+_ENSMUSG00000022010_ENSMUST00000022587|mus_hu|FALSE|FALSE (ssRNA)
RNA: GGGAGUUCUACAGUCCGACGAUCUCCUAGAUCCAUCGCCACUGGUCUACACCAUUGGGAUUUCAUGCAAUUGCAGCCAAAAACACCCUCGUGGAAAAAAAGAGGGAACACCAGCAGCCUUGUAUAAGCUAGAUAAAAUCUUCUCAACAGAGGAUUGAGCAUCA
B6: chr1:66480114:66480115:+_ENSMUSG00000015222_ENSMUST00000024639|mus_hu|mus_mus_mus_hu_True|58_98 (ssRNA)
RNA: GGGAGUUCUACAGUCCGACGAUCUGGCCUGUGGCGGAUGUUCUUUAGAGAGCCACAUUUGGAUGUCACAUGGCUUAAGUCUAUCUUCUUGGUAACAAUUUGUACCUGCCCCCCUUUAGGCUGGUAUUUGAUGUUGUCUGUUGACAACAGAGGAUUGAGCAUCA

What follows are binders tested against T1, UNK ZnF1-3 (assay: nsRBNS (natural sequence RNA bind-n-seq); RBNS binding buffer (assumed for nsRBNS): 25 mM Tris pH 7.5, 150 mM KCl, 3 mM MgCl2, 0.01% Triton X-100, 500 ug/ml BSA, 20 U/ml SUPERase-In, 4 C; UNK is unkempt and MSI1 is Musashi-1; names of the RNAs are library labels; protein concentration not given here; high values mean tight binding).
In the case of B1, the binding signal is reported as 0.34 enrichment R.
For B2, the binding signal was 0.374 enrichment R.
B3 was tested, and the binding signal was 1.07 enrichment R.
Binder B4 has a binding signal of 0.569 enrichment R.
B5 gave a binding signal of 1.31 enrichment R.
In the case of B6, the binding signal is reported as 0.402 enrichment R.
